Several values for one entry are separate records, joined by “and”; a condition that tells them apart may be missing. Identical values can stand only once. Screen size: about 150,000 compounds; about 540 (0.36%) showed an effect of 50% or more. This is one part of the list.
Test system: Plasmodium falciparum
Test: Primary screen in NF54 nanoGlo assay, in single point, at 2uM, 72h; a lower Z score goes with more inhibition
Assay type: functional, Erythrocyte
Settings: timepoint 72 hour

Row | Compound | % Inhibition [%] | Z score | % Inhibition (2 µM)
1 | CC1CCCC(C)N1C(=O)CN1C(=O)NC2(CCCC2)C1=O (stereo unspecified) | -1 | 0.14 | –
2 | Cn1c(C(=O)NCc2ccc3[nH]cnc3c2)cc2ccc(Cl)cc21 | -16 | 1.43 | –
3 | COCC1(S(=O)(=O)Nc2ccc(Cl)cc2-c2nnn[nH]2)CC1 | -9 | 1.43 | –
4 | Cc1c(Cl)cccc1-n1nc(Cn2cncn2)nc1[C@@H]1CCCCO1 | -1 | 0.14 | –
5 | Cc1nc(NC(=O)c2ccc3c(c2)C(=O)N(C2CCCC2)C3=O)sc1C | -9 | 1.11 | –
6 | Cc1ccccc1NC(=O)CN1CCN(CC(=O)c2ccco2)CC1 | -3 | 0.58 | –
7 | Cn1nc(C2CC2)nc1C(=O)NCC1(C)CCCC1 | -14 | 2.68 | –
8 | COc1ccc(-c2nn(-c3ccccc3C)cc2CN(C)C2CCOCC2)cc1F | 1 | -0.15 | –
9 | Cc1cc([C@@H](O)CCNC(=O)C(=O)Nc2cccc(N3CCCC3=O)c2)c(C)o1 | -13 | 1.71 | –
10 | CCC(C)NC(=O)C1COC2(CCN(C(=O)c3ccc4c(c3)OCO4)CC2)N1C(=O)c1ccc(C)cc1 (stereo unspecified) | -12 | 1.93 | –
11 | COc1ccc(Cc2nn(CN3CCC(C(=O)Nc4ccc(C)cn4)CC3)c(=S)o2)cc1 | 21 | -2.69 | –
12 | CNS(=O)(=O)[C@H]1CCN(Cc2cc(Cl)ccc2F)C1 | -4 | 0.49 | –
13 | Cc1noc(C)c1CN1CCn2c(C)nnc2[C@@H]1C(=O)N1CCCC1 | 4 | -0.64 | –
14 | CN(Cc1cscn1)C(=O)NCc1ncnn1C(C)(C)C | -7 | 1.06 | –
15 | C=CCCS(=O)(=O)N1CCCC[C@H]1C(=O)CC | -14 | 1.61 | –
16 | CCn1ccc(C(=O)N2CC3(C[C@H](N4CCOCC4)CO3)C2)n1 | -19 | 2.95 | –
17 | Cc1cc(O)nc(C=Cc2cn(C(C)(C)C)nn2)n1 | -22 | 2.53 | –
18 | C[C@H](C(=O)N1CCc2c(nc[nH]c2=O)C1)C(C)(C)C | -13 | 2.28 | –
19 | CCn1cccc(CNC(=O)c2ccc3c(c2)[C@@H](C)CO3)c1=O | -16 | 2.37 | –
20 | CCN(C(=O)c1cn(C(C)C)nc1C)c1cccc(C)c1F | -3 | 0.48 | –
21 | CNC(=O)Nc1cc(C)cc2c(-c3ccccc3)c(C(=O)NCc3cccc(F)c3)[nH]c12 | 38 | -4.3 | –
22 | CCOc1ccc(CNC(=O)c2ccc3cnn(Cc4ccc(F)cc4)c3c2)cc1 | -21 | 1.82 | –

Row | Compound | % Inhibition [%] | Z score | % Inhibition (2 µM)
23 | CCCCNC(=O)c1ccc(-c2c[nH]nc2C)o1 | -10 | 1.14 | –
24 | OCCn1nc(Cc2c(Cl)cccc2Cl)nc1C1CCC1 | -7 | 1.02 | –
25 | Cc1ccc(OC[C@H]2CN(Cc3cccs3)CCO2)cc1 | -5 | 0.78 | –
26 | CC(=O)Nc1cc(NC(C)=O)cc(-c2nc(C(C)C)nn2-c2ncccc2C)c1 | -17 | 2.27 | –
27 | CCC(C)NC(=O)Cn1cnc2nc(N3CCCC(C(=O)NC(C)C)C3)sc2c1=O (stereo unspecified) | -18 | 1.57 | –
28 | O=C([C@H]1C[C@@H]1c1ccccc1)N1Cc2ccccc2OC(c2ccccc2)C1 (stereo partly specified) | 4 | -0.84 | –
29 | CC(C)(C)c1nc(CN2CCN(S(=O)(=O)c3cccnc3)CC2)no1 | -4 | 0.83 | –
30 | O=C(c1ccc2c(c1)n(CC1CC1)c(=O)n2C1CCCCC1)N1CCC(F)(F)CC1 | -4 | 0.77 | –
31 | CCN(Cc1cnn(C)c1)c1ncnc(C)c1F | -6 | 1.28 | –
32 | N[C@H]1C[C@H](c2cc(NCc3cccc(Cl)c3F)ncn2)C1 | -8 | 1.5 | –
33 | Cc1noc(C)c1CCC(=O)N1C2CCC1CC(n1ccnn1)C2 (stereo unspecified) | -3 | 0.45 | –
34 | O=C(N[C@@H]1CN(Cc2ccc3[nH]ccc3c2)CC[C@@H]1CO)c1ccccc1 | -12 | 1.6 | –
35 | Cc1ccccc1Cn1c(-c2ccccn2)nnc1N1CCN(Cc2ccccc2)CC1 | -2 | 0.31 | –
36 | C[C@@H](c1ccccn1)N(C)c1cc(N2CCC(C)(O)CC2)ncn1 | -6 | 1.21 | –
37 | C=CCNCC#CCOc1ccc(CC)cc1 | 17 | -1.82 | –
38 | CCOC(=O)c1cnn2ccc(NC(=O)c3cn(C)nn3)cc12 | -14 | 2.18 | –
39 | CCC1(CC)CN(c2ncnc(N)c2Cl)CCS1(=O)=O | 4 | -0.66 | –
40 | COc1ccc(NC(=O)c2n[nH]c3c2CCC3)cn1 | – | – | 3% and -2%
41 | CN(C)c1nc2ccc(NCc3cc4c(cc3O)OCO4)cc2o1 | 27 | -3.97 | –
42 | CN(CCC(=O)Nc1ccc2c(c1)CCC2)CC(=O)Nc1ccc(Cl)cc1 | -9 | 0.8 | –
43 | CCn1nc(CO)c2c1CCN(C/C=C/c1ccc(OC)cc1)C2 | 2 | -0.38 | –
44 | Cc1[nH]c2ccc(CNc3cncc(C(=O)N(C)C)n3)cc2c1C | -7 | 0.96 | –

Row | Compound | % Inhibition [%] | Z score | % Inhibition (2 µM)
45 | CCCCn1nc(Cn2cncn2)nc1CN1CCCC1=O | 2 | -0.38 | –
46 | Cc1cnc2c(c1)N(S(=O)(=O)c1cc(F)ccc1C)CCO2 | 11 | -2.13 | –
47 | CCOC1CC(NC(=O)N2CCCc3n[nH]cc32)C12CCOCC2 (stereo unspecified) | -5 | 0.66 | –
48 | N#Cc1ccccc1C(=O)N[C@H]1CCOC[C@@H]1Oc1cccc(F)c1 | -12 | 1.31 | –
49 | COCCNC(=O)[C@@H]1Cn2c(n[nH]c2=O)CN1C(=O)c1ccc(C)s1 | -17 | 2.03 | –
50 | CCOCC1CCN(C(=O)c2ccc(-c3ccc4c(c3)CCC4=O)cc2)CC1 | 6 | -1.06 | –
51 | CC1=C[C@@H](CN)[C@H](C(C)C)C[C@H]1Cc1nc2cccc(C)c2[nH]1 | -6 | 0.85 | –
52 | O=C(Cc1ccsc1)N1CCN(c2cc(-n3cncn3)ncn2)CC1 | -16 | 2.03 | –
53 | CCOc1ccc(S(=O)(=O)N2CC(n3ccnn3)C2)cc1F | -18 | 2.85 | –
54 | Cc1ccc(-n2nc(C(=O)NCC3CC3)c(=O)n(Cc3ccccc3F)c2=O)cc1 | -10 | 1.41 | –
55 | CC(C)n1cc2cc(C(=O)N3CCN(CCC#N)CC3)sc2c1 | -2 | 0.38 | –
56 | Cc1nnsc1C(=O)N1CCC[C@H](Oc2cnccn2)C1 | -14 | 2.34 | –
57 | CC[C@@H]1Oc2ccc(NC(=O)Cc3ccc(F)cc3)cc2CN(Cc2ccccc2F)C1=O | -5 | 0.45 | –
58 | O=C(Nc1ccccc1)c1cccc(-n2ccnc2)n1 | 29 | -3.92 | –
59 | COC(=O)[C@@](C)(NCc1ccccn1)C1CC1 | -13 | 1.67 | –
60 | c1cn(CCCn2ccnc2-c2ccc(-c3cc[nH]n3)o2)cn1 | 6 | -1.19 | –
61 | C[C@H]1Cc2ccccc2N1Cc1nc(-c2cccnc2)no1 | -3 | 0.48 | –
62 | CCN(CC)C(=O)C1CCCN1C(=O)C1COc2ccccc2O1 (stereo unspecified) | 7 | -1.17 | –
63 | CC(C)N1CC[C@H](NC(=O)Nc2cc(C3CCC3)nn2C)C1=O | -2 | 0.15 | –
64 | O=C(O)[C@H]1CCCN1CC1CCOc2ccccc21 (stereo partly specified) | -6 | 1.27 | –
65 | Cc1nccc(OC2CCN(C(=O)COCc3ccccc3)CC2)n1 | 0 | -0.06 | –
66 | CC(C)N1CCN(c2nc(-c3ccccc3Cl)c3c(N)n(C)nc3n2)CC1 | -4 | 0.61 | –

Row | Compound | % Inhibition [%] | Z score | % Inhibition (2 µM)
67 | C[C@H](NC(=O)N(CCO)Cc1ccco1)C(=O)N(C)C | -7 | 1.01 | –
68 | CC(C)(NS(C)(=O)=O)c1noc(C2(c3ccccc3)CC2)n1 | -6 | 0.71 | –
69 | O=C1CN(CCOc2ccc(Cl)cc2Br)CCN1 | -4 | 0.54 | –
70 | CCCOC(=O)c1cc(NC(=O)c2ccc3ccccc3c2)ccc1N1CCOCC1 | 35 | -4.02 | –
71 | NCC1(C(=O)N2CCn3c(Cc4cccc(F)c4)nnc3C2)CCCC1 | -6 | 0.85 | –
72 | Clc1snnc1CN1CC[C@H](OCCCc2ccccc2)C1 | -6 | 0.62 | –
73 | COc1nc(C)c(-c2ccc(S(C)(=O)=O)cc2)c(C)c1C#N | 6 | -0.87 | –
74 | CCOC(=O)Cc1cccc(NC(=O)[C@@H]2CCCCN2C(C)=O)c1 | -3 | 0.64 | –
75 | O=C(c1cccc(F)c1)N1CCN(c2cc(N3CCCC3)ncn2)CC1 | -25 | 2.24 | –
76 | C#CCN(CC#CC)S(=O)(=O)c1cccs1 | -8 | 1.1 | –
77 | O=C1NC2(CCCC2)C(=O)N1CN1CCc2ccccc2C1 | 19 | -2.17 | –
78 | NC(=O)N1CCC(N[C@H]2CCc3c(Cl)cc(Cl)cc32)CC1 | -13 | 1.46 | –
79 | OC(CNC(c1ccccc1)c1ccc(F)cn1)c1ccco1 (stereo unspecified) | -10 | 1.36 | –
80 | Cc1noc2ncnc(NCC(C)(C)CS(C)(=O)=O)c12 | -15 | 2.89 | –
81 | CCO[C@H]1COC[C@@H]1NC(=O)c1cn2cccc(C)c2n1 | -12 | 2.37 | –
82 | CCn1cc(S(=O)(=O)Nc2ccc3ncccc3c2)cn1 | -12 | 1.41 | –
83 | CC(C)CCn1c(=O)c2sccc2n(CC(=O)N(C)C2CCCCC2)c1=O | 8 | -1.31 | –
84 | CCNC(=O)c1ccc(CN2CCC(Cc3ccccc3)CC2)o1 | -9 | 1.48 | –
85 | N#CCN1CCC(CNC(=O)c2ccnc(OC3CCC3)c2)CC1 | -4 | 0.58 | –
86 | O=C(c1ccc2c(c1)OCO2)[C@H]1CCCN(Cc2ccc3cccc(F)c3n2)C1 | -2 | 0.28 | –
